# Measured values from the supplement of paper PMC8728848.
# Some of the results follow.
# B1: Gal 2 (Homo sapiens), P05162 (protein)
# chain: MTGELEVKNMDMKPGSTLKITGSIADGTDGFVINLGQGTDKLNLHFNPRFSESTIVCNSLDGSNWGQEQREDHLCFSPGSEVKFTVTFESDKFKVKLPDGHELTFPNRLGHSHLSYLSVRGGFNMSSFKLKE
# How the values were obtained:
# Assay in all cases: glycan array binding signal (z-score within array); higher = stronger binding
# Settings in all cases: glycan notation: IUPAC condensed, linker removed
# [1] = target: Fuc(a1-2)Gal
# Outline: (§1)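 Glycan array data came from 3228 arrays in the Consortium for Functional Glycomics database, and only arrays with an available protein sequence were kept. Glycan names were put into IUPAC-condensed notation, and columns mapping to the same glycan were averaged. The binding signal is a within-array Z-score, averaged across arrays of one protein sequence run at different concentrations or buffers and across linkers. A negative Z-score can be read as non-binding.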
# [2] = target: Fuc(a1-2)Gal(b1-3)GalNAc
# Outline: as §1
# [3] = target: Fuc(a1-2)Gal(b1-3)GalNAc(a1-3)[Fuc(a1-2)]Gal(b1-4)Glc
# Outline: as §1
# [4] = target: Fuc(a1-2)Gal(b1-3)GalNAc(a1-3)[Fuc(a1-2)]Gal(b1-4)GlcNAc
# Outline: as §1
# [5] = target: Fuc(a1-2)Gal(b1-3)GalNAc(b1-3)Gal
# Outline: as §1
# [6] = target: Fuc(a1-2)Gal(b1-3)GalNAc(b1-3)Gal(a1-4)Gal(b1-4)Glc
# Outline: as §1
# [7] = target: Fuc(a1-2)Gal(b1-3)GalNAc(b1-3)Gal(b1-4)Glc
# Outline: as §1
# [8] = target: Fuc(a1-2)Gal(b1-3)GalNAc(b1-4)[Neu5Ac(a2-3)]Gal(b1-4)Glc
# Outline: as §1
# [9] = target: Fuc(a1-2)Gal(b1-3)GlcNAc
# Outline: as §1
# [10] = target: Fuc(a1-2)Gal(b1-3)GlcNAc(b1-2)Man(a1-3)[Fuc(a1-2)Gal(b1-3)GlcNAc(b1-2)Man(a1-6)]Man(b1-4)GlcNAc(b1-4)GlcNAc
# Outline: as §1
# [11] = target: Fuc(a1-2)Gal(b1-3)GlcNAc(b1-2)Man(a1-3)[Fuc(a1-2)Gal(b1-3)GlcNAc(b1-2)Man(a1-6)]Man(b1-4)GlcNAc(b1-4)[Fuc(a1-6)]GlcNAc
# Outline: as §1
# [12] = target: Fuc(a1-2)Gal(b1-3)GlcNAc(b1-3)Gal(b1-4)Glc
# Outline: as §1
# [13] = target: Fuc(a1-2)Gal(b1-3)GlcNAc(b1-3)GalNAc
# Outline: as §1
# [14] = target: Fuc(a1-2)Gal(b1-3)GlcNAc(b1-3)[Fuc(a1-2)Gal(b1-3)GlcNAc(b1-6)]GalNAc
# Outline: as §1
# [15] = target: Fuc(a1-2)Gal(b1-3)GlcNAc(b1-3)[Gal(b1-4)GlcNAc(b1-6)]Gal(b1-4)Glc
# Outline: as §1
# [16] = target: Fuc(a1-2)Gal(b1-3)GlcNAc(b1-3)[Neu5Ac(a2-6)Gal(b1-4)GlcNAc(b1-6)]Gal(b1-4)Glc
# Outline: as §1
# [17] = target: Fuc(a1-2)Gal(b1-3)GlcNAc6S
# Outline: as §1
# [18] = target: Fuc(a1-2)Gal(b1-3)[Fuc(a1-4)]GlcNAc
# Outline: as §1
# [19] = target: Fuc(a1-2)Gal(b1-3)[Fuc(a1-4)]GlcNAc(b1-2)Man(a1-3)[Fuc(a1-2)Gal(b1-3)[Fuc(a1-4)]GlcNAc(b1-2)Man(a1-3)]Man(b1-4)GlcNAc(b1-4)GlcNAc
# Outline: as §1
# [20] = target: Fuc(a1-2)Gal(b1-3)[Fuc(a1-4)]GlcNAc(b1-2)Man(a1-3)[Fuc(a1-2)Gal(b1-3)[Fuc(a1-4)]GlcNAc(b1-2)Man(a1-6)]Man(b1-4)GlcNAc(b1-4)[Fuc(a1-6)]GlcNAc(b1-4)[Fuc(a1-6)]GlcNAc
# Outline: as §1
# [21] = target: Fuc(a1-2)Gal(b1-3)[Fuc(a1-4)]GlcNAc(b1-3)[Fuc(a1-3)[Gal(b1-4)]GlcNAc(b1-6)]Gal(b1-4)Glc
# Outline: as §1
# [22] = target: Fuc(a1-2)Gal(b1-3)[Fuc(a1-4)]GlcNAc(b1-3)[Gal(b1-4)GlcNAc(b1-6)]Gal(b1-4)Glc
# Outline: as §1
# [23] = target: Fuc(a1-2)Gal(b1-4)Fuc(a1-3)]GlcNAc(b1-2)Man(a1-3)[Fuc(a1-2)Gal(b1-4)[Fuc(a1-3)]GlcNAc(b1-2)Man(a1-6)]Man(b1-4)GlcNAc(b1-4)GlcNAc
# Outline: as §1
# [24] = target: Fuc(a1-2)Gal(b1-4)Glc
# Outline: as §1
# [25] = target: Fuc(a1-2)Gal(b1-4)Glc6S
# Outline: as §1
# [26] = target: Fuc(a1-2)Gal(b1-4)GlcNAc
# Outline: as §1
# [27] = target: Fuc(a1-2)Gal(b1-4)GlcNAc(b1-2)Man
# Outline: as §1
# [28] = target: Fuc(a1-2)Gal(b1-4)GlcNAc(b1-2)Man(a1-3)[Fuc(a1-2)Gal(b1-4)GlcNAc(b1-2)Man(a1-6)]Man(b1-4)GlcNAc(b1-4)GlcNAc
# Outline: as §1
# [29] = target: Fuc(a1-2)Gal(b1-4)GlcNAc(b1-2)Man(a1-3)[Fuc(a1-2)Gal(b1-4)GlcNAc(b1-2)Man(a1-6)]Man(b1-4)GlcNAc(b1-4)[Fuc(a1-6)]GlcNAc
# Outline: as §1
# [30] = target: Fuc(a1-2)Gal(b1-4)GlcNAc(b1-2)[Fuc(a1-2)Gal(b1-4)GlcNAc(b1-4)]Man(a1-3)[Fuc(a1-2)Gal(b1-4)GlcNAc(b1-2)Man(a1-6)]Man(b1-4)GlcNAc(b1-4)GlcNAc
# Outline: as §1
# [31] = target: Fuc(a1-2)Gal(b1-4)GlcNAc(b1-3)Gal(b1-4)GlcNAc
# Outline: as §1
# [32] = target: Fuc(a1-2)Gal(b1-4)GlcNAc(b1-3)Gal(b1-4)GlcNAc(b1-2)Man(a1-3)[Fuc(a1-2)Gal(b1-4)GlcNAc(b1-3)Gal(b1-4)GlcNAc(b1-2)Man(a1-6)]Man(b1-4)GlcNAc(b1-4)GlcNAc
# Outline: as §1
# [33] = target: Fuc(a1-2)Gal(b1-4)GlcNAc(b1-3)Gal(b1-4)GlcNAc(b1-3)Gal(b1-4)GlcNAc
# Outline: as §1
# [34] = target: Fuc(a1-2)Gal(b1-4)GlcNAc(b1-3)GalNAc
# Outline: as §1
# [35] = target: Fuc(a1-2)Gal(b1-4)GlcNAc(b1-3)[Fuc(a1-2)Gal(b1-4)GlcNAc(b1-6)]GalNAc
# Outline: as §1
# [36] = target: Fuc(a1-2)Gal(b1-4)GlcNAc(b1-3)[Fuc(a1-3)[Gal(b1-4)]GlcNAc(b1-6)]Gal(b1-4)Glc
# Outline: as §1
# [37] = target: Fuc(a1-2)Gal(b1-4)GlcNAc(b1-6)GalNAc
# Outline: as §1
# [38] = target: Fuc(a1-2)Gal(b1-4)GlcNAc6S
# Outline: as §1
# [39] = target: Fuc(a1-2)Gal(b1-4)[Fuc(a1-3)]GalNAc(b1-3)Gal(b1-4)[Fuc(a1-3)]GlcNAc
# Outline: as §1
# [40] = target: Fuc(a1-2)Gal(b1-4)[Fuc(a1-3)]GalNAc(b1-3)Gal(b1-4)[Fuc(a1-3)]GlcNAc(b1-3)Gal(b1-4)[Fuc(a1-3)]GalNAc
# Outline: as §1
# [41] = target: Fuc(a1-2)Gal(b1-4)[Fuc(a1-3)]GlcNAc
# Outline: as §1
# [42] = target: Fuc(a1-2)Gal(b1-4)[Fuc(a1-3)]GlcNAc(b1-2)Man(a1-3)[Fuc(a1-2)Gal(b1-4)[Fuc(a1-3)]GlcNAc(b1-2)Man(a1-6)]Man(b1-4)GlcNAc(b1-4)[Fuc(a1-6)]GlcNAc
# Outline: as §1
# [43] = target: Fuc(a1-2)Gal(b1-4)[Fuc(a1-3)]GlcNAc(b1-2)[Fuc(a1-2)Gal(b1-4)[Fuc(a1-3)]GlcNAc(b1-4)]Man(a1-3)[Fuc(a1-2)Gal(b1-4)[Fuc(a1-3)]GlcNAc(b1-2)Man(a1-6)]Man(b1-4)GlcNAc(b1-4)GlcNAc
# Outline: as §1
# [44] = target: Fuc(a1-2)Gal(b1-4)[Fuc(a1-3)]GlcNAc(b1-3)Gal(b1-4)[Fuc(a1-3)]GlcNAc
# Outline: as §1
# [45] = target: Fuc(a1-2)Gal(b1-4)[Fuc(a1-3)]GlcNAc(b1-3)Gal(b1-4)[Fuc(a1-3)]GlcNAc(b1-3)Gal(b1-4)[Fuc(a1-3)]GlcNAc
# Outline: as §1
binder,measurement,setting,value
B1,glycan array binding signal (z-score),[1],-0.285
same,glycan array binding signal (z-score),[2],1.22
same,glycan array binding signal (z-score),[3],-0.125
same,glycan array binding signal (z-score),[4],0.069
same,glycan array binding signal (z-score),[5],-0.231
same,glycan array binding signal (z-score),[6],-0.282
same,glycan array binding signal (z-score),[7],3.12
same,glycan array binding signal (z-score),[8],-0.24
same,glycan array binding signal (z-score),[9],1.99
same,glycan array binding signal (z-score),[10],-0.215
same,glycan array binding signal (z-score),[11],-0.229
same,glycan array binding signal (z-score),[12],2.35
same,glycan array binding signal (z-score),[13],-0.166
same,glycan array binding signal (z-score),[14],-0.048
same,glycan array binding signal (z-score),[15],0.057
same,glycan array binding signal (z-score),[16],-0.046
same,glycan array binding signal (z-score),[17],0.012
same,glycan array binding signal (z-score),[18],-0.246
same,glycan array binding signal (z-score),[19],0.367
same,glycan array binding signal (z-score),[20],0.137
same,glycan array binding signal (z-score),[21],-0.103
same,glycan array binding signal (z-score),[22],-0.15
same,glycan array binding signal (z-score),[23],-0.079
same,glycan array binding signal (z-score),[24],-0.05
same,glycan array binding signal (z-score),[25],-0.179
same,glycan array binding signal (z-score),[26],0.393
same,glycan array binding signal (z-score),[27],-0.144
same,glycan array binding signal (z-score),[28],0.847
same,glycan array binding signal (z-score),[29],-0.196
same,glycan array binding signal (z-score),[30],-0.083
same,glycan array binding signal (z-score),[31],2.16
same,glycan array binding signal (z-score),[32],0.488
same,glycan array binding signal (z-score),[33],2.4
same,glycan array binding signal (z-score),[34],-0.16
same,glycan array binding signal (z-score),[35],-0.064
same,glycan array binding signal (z-score),[36],-0.105
same,glycan array binding signal (z-score),[37],0.15
same,glycan array binding signal (z-score),[38],0.177
same,glycan array binding signal (z-score),[39],-0.509
same,glycan array binding signal (z-score),[40],-0.356
same,glycan array binding signal (z-score),[41],-0.22
same,glycan array binding signal (z-score),[42],-0.066
same,glycan array binding signal (z-score),[43],-0.079
same,glycan array binding signal (z-score),[44],-0.222
same,glycan array binding signal (z-score),[45],-0.239
